Hit rate of the full screen: of about 48,000 compounds, about 120 (0.25%) were called active. About 4% were inconclusive and are not listed. The call rests on the fitted dose curve; in most records, active means well fitted activation curve with a large enough effect; inconclusive means small, poorly fitted or top-dose-only effect, or another doubt; inactive means no such curve, though single readings can be large or run the other way. The list shows a part of the results.
Assay: Primary qHTS for Identification of Small Molecule Activators of Huntingtin-Antisense Promoter Activity; further: nearly all actives have a fitted effect of over 55% in size
Settings: HEK293 HTT-AS promoter firefly luciferase reporter, 24 h; series mostly up to 57.5 µM; activity change, positive = activation: at the top concentration
Outline: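 HEK293 luciferase promoter-reporter cells (2,500/well) plated 24 h, then compounds added at up to 57.5 uM final for 24 h at 37 °C. Firefly luminescence by Dual-Glo, normalized to vehicle (0%) and zero RLU (-100%).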

Activity change, positive = activation, inactive:
COc1ccc(CNC(=O)CN2C(=O)CSc3ccc(S(=O)(=O)N4CCOCC4)cc32)c(OC)c1 -7.83%
COc1cccc(CNC(=O)c2cc(S(=O)(=O)N3CCCCC3)cn2C)c1 -14%
CC(=O)Nc1ccc(NC(=O)CSc2nc3ccccc3nc2N2CCC(C)CC2)cc1 -12.9%
O=C(c1ccc(C=Cc2n[nH]c3ccccc23)cc1)N1CCNCC1 27.7%
Cc1c(C(=O)N2CCCCCC2)c(S(=O)(=O)NCc2ccc(Br)cc2)c(C)n1C -21.3%
COC(=O)C1=C(C)NC(C)=C(C(=O)OC)C1c1ccccc1[N+](=O)[O-] 28.4%
Cc1ccc(-c2nc3ccccn3c2Nc2ccccc2C)s1 -13.2%
CCOc1ccc(CNC(=O)c2ccc3nc(C(C)C)oc3c2)cc1 7.16%
COC(=O)c1ccc(NC(=O)NCCn2nnc3cc(S(=O)(=O)N(C)C)ccc32)cc1 -6.56%
CCOc1ccccc1C(=O)Nc1c(C(=O)Nc2ccc(F)cc2)oc2ccccc12 -38.1%
Cn1c(=O)c(=O)n(C)c2cc(S(=O)(=O)CCC(=O)Nc3ccc(F)cc3)ccc21 -5.41%
CCOc1ccc(C2Nc3c(C)cccc3-c3cc(C)nn32)cc1 (stereo unspecified) -26.1%
Cc1oc2ncnc(N3CCOCC3)c2c1C(=O)N(Cc1ccccc1)C(C)C -10.9%
COc1ccc(S(=O)(=O)NCC(c2ccco2)S(=O)(=O)c2cccs2)cc1C (stereo unspecified) -14.1%
CC1CCC(NC(=O)c2cc3c(Cl)nc4ccccc4c3s2)CC1 (stereo unspecified) -8.27%
O=C(Cn1ccc2cc(S(=O)(=O)N3CCCCC3)ccc21)NCc1cccc(Cl)c1 -40.8%
CC(=O)Nc1ccccc1-c1nc2ccccc2n(Cc2cccc(Br)c2)c1=O -8.78%
CCOc1ccccc1NC(=O)Cn1c(=O)n(Cc2ccccc2)c(=O)c2cccnc21 -13%
Cc1cc(C)c(NC(=O)Cn2nnc(-c3ccccc3)n2)c(C)c1 -9.76%
Cc1cc(S(=O)(=O)NCC(c2ccco2)S(=O)(=O)c2ccccc2)ccc1F (stereo unspecified) -9.51%
CCOC(=O)C(C)NC(=O)C1CCN(c2ncnc3c2nc2n3CCCCC2)CC1 (stereo unspecified) 4.48%
O=C(CN1CCCN(Cc2ccccc2Cl)S1(=O)=O)NCc1ccccc1 -11.5%
Cc1cccn2c(=O)cc(COc3cccc(NC(=O)COc4ccc(F)cc4)c3)nc12 4.03%
CCc1nnc(NC(=O)C(=O)c2cc(C)n(-c3ccccc3)c2C)s1 -50.4%
CC(C)N(Cc1ccccc1)C(=O)Cn1ncc2c([nH]c3ccccc32)c1=O -19.9%
COc1ccc(NC(=O)C(Cc2ccccc2)n2cccc2)cc1OC (stereo unspecified) -23.8%
COc1cc(-c2noc(CCC(=O)Nc3cc(C)ccc3C)n2)cc(OC)c1OC -55.3%
Cc1ccccc1Cn1c2ccccc2c2cnn(CC(=O)NCCc3ccccc3)c(=O)c21 -17.5%
COc1ccc(NC(=O)CCS(=O)(=O)c2ccc3nc(C)sc3c2)cc1Cl -10.5%
Cc1ccc(-n2ncc(C(=O)NCCc3c[nH]c4ccccc34)c2C2CCN(C(=O)OC(C)(C)C)CC2)cc1C -45.6%
Cc1ccccc1C(=O)N(Cc1nc(-c2ccc(Cl)cc2)no1)C(C)C -29.2%
CCn1c(=O)c2sccc2n2c(CCC(=O)N3CCN(c4ccc(C(C)=O)cc4)CC3)nnc12 -18.7%
CNC(=O)c1c(NC(=O)/C=C/c2ccccc2Cl)sc2c1CCC2 -12.6%
O=C(Cn1c(-c2cccs2)cc2cc(Cl)ccc21)N1CCN(c2ccccc2F)CC1 -19.3%
CC(NC(=O)CN(c1ccc(Cl)cc1Cl)S(=O)(=O)c1ccccc1)c1ccccc1 (stereo unspecified) -10.3%
COc1ccc(C(=O)c2oc3ccccc3c2NC(=O)COc2cccc(C)c2C)cc1 2.82%
CCC(=O)Nc1ccc(CC)cc1-c1nc2ccccc2n(Cc2ccccc2)c1=O -31.9%
CCCN(CCC)CCCNC(=O)Cn1ncc2c3ccccc3n(Cc3ccccc3)c2c1=O 1.64%
Cc1ccc(NC(=O)Cc2csc(C)n2)c(C)c1 3.13%
Cc1ccc(C(=O)Nc2ccc(OCc3cc(=O)n4c(C)csc4n3)cc2)cc1 -0.342%
Cc1cccc(NC(=O)CSc2nncn2C)c1 -5.52%
Cc1ccc(Nc2c(-c3ccc(O)cc3)nc3cccc(C)n23)cc1 -16.4%
Cc1nc(-c2ccc(Cl)cc2)sc1CCNC(=O)c1cccs1 -6.19%
CCN(CC)CCN(C(=O)c1ccco1)c1nc2ccc(Br)cc2s1 0.0373%
CCCOc1ccc(-c2nc(SC)[nH]c(=O)c2C#N)cc1OC -27.6%
CC(=O)Nc1nonc1-c1nnc(SCC(=O)Nc2cc(C)cc(C)c2)n1-c1ccccc1 -28.6%
Cc1ccc(S(=O)(=O)c2c(Nc3cc(F)ccc3F)sc(C(=O)c3ccc(F)cc3)c2N)cc1 -40.8%
Cc1cc(C)cc(NC(=O)C2CCCN(C(=O)c3cnn(-c4ccccc4)c3-n3cccc3)C2)c1 (stereo unspecified) -37.2%
O=C(CSc1nc2c([nH]c3ccccc32)c(=O)n1-c1ccc(Cl)cc1)N1CCOCC1 -9.23%
CCC1CCCCN1CC(=O)Nc1cc(C)c2c(=O)oc3ccccc3c2n1 (stereo unspecified) 7.76%
Cc1ccc(-c2nonc2NC(=O)c2ccc(F)cc2)cc1C -18%
O=S(=O)(NCC(c1ccco1)N1CCOCC1)c1cc(F)ccc1F (stereo unspecified) -16.6%
Cc1cccc(NC(=O)CSc2c(C)cnc3c2c(=O)n(C)c(=O)n3C)c1C -5.84%
CCc1nn(C(CC)C(=O)NCc2ccc(F)cc2)c(=O)c2cc3occc3n12 (stereo unspecified) -15.4%
O=C(CCc1ccccc1)N(Cc1cccnc1)c1nc2c(F)cccc2s1 -28.7%
COc1cc(C(=O)NCC(c2ccco2)S(=O)(=O)c2ccccc2)cc(OC)c1OC (stereo unspecified) -12.6%
NCCCC(N)CC(=O)NCC1NC(=O)C(CO)NC(=O)C(N)CNC(=O)C(C2CCN=C(N)N2)NC(=O)C(=CNC(N)=O)NC1=O (stereo unspecified) -1% [at 0.74 µM, percent change from vehicle, -100% = no light]
CCCOc1ccc(C(=O)N(Cc2ccc(N(C)C)cc2)CC2CCCO2)cc1 (stereo unspecified) -16.7%
CC1=C(C(=O)Nc2ccccc2)C(CC(C)C)n2nc(SCc3ccccc3C)nc2N1 (stereo unspecified) 3.57%
O=C(c1cc2c(s1)-c1ccccc1OC2)N1CCN(c2ccccc2)CC1 -4.51%
Cc1ccc(-c2cc(C(=O)Oc3ccccc3)c3cc(C)ccc3n2)cc1 13.7%
COc1ccc2c(c1)c1c(c(=O)n(-c3cccc(Cl)c3)c(=O)n1CC(=O)N1CCCC1)n2C -3.29%
COc1ccc2nc(NC(=O)c3nc(S(=O)(=O)Cc4cccc(C)c4)ncc3Cl)sc2c1 -77.9%
CCC1CCCCN1CCCNC(=O)CN1C(=O)CSc2ccc(S(=O)(=O)N3CCOCC3)cc21 (stereo unspecified) -7.07%
Cc1cc(NC(=O)C2CCN(S(=O)(=O)c3ccc4[nH]c(=O)oc4c3)CC2)ccc1Br -56.7%
Clc1ccccc1CN1CCc2sccc2C1
CCOC(=O)Cn1nc(C)c(NC(=O)COc2ccc(Cl)cc2C)c1C -37%
CCOc1ccccc1NC(=O)Cn1ccn(Cc2ccc(C)cc2)c(=O)c1=O -14.8%
CCC(C)NC(=O)CSc1nc2c(sc3ccccc32)c(=O)n1Cc1ccccc1Cl (stereo unspecified) -1.65%
Cc1ccc(C)c(CSc2nc3ccncc3n2CC(=O)Nc2ccc(N(C)C)cc2)c1 -16.7%
Cc1cccc2nc(-c3cccc(NS(=O)(=O)c4ccccc4)c3)cn12 -15.5%
Cc1cc(C)c(NC(=O)Nc2ccc3snnc3c2)c(C)c1 -34.1%
Clc1ccccc1CNc1ncnc2c1c(-c1ccccc1)cn2-c1ccccc1 -19.6%
Cc1ccc(C)c(Cn2c3ccccc3c3cnn(CC(=O)NCc4ccccc4)c(=O)c32)c1 -5.58%
COCCCNC(=O)CSc1nc2c(sc3ccccc32)c(=O)n1CCCC(=O)NCCOC -8.34%
Fc1ccccc1Cn1c(-c2ccccc2)nc2ccccc21 -24.3%
CC(=O)c1ccc(NC(=O)COCc2cc(-c3ccco3)on2)cc1 -3.12%
COc1cccc(N2CC(NC(=O)c3cccc(OC)c3OC)CC2=O)c1 (stereo unspecified) -12.2%
Cc1ccccc1OCc1nnc(SCc2cc(=O)c3cccc(F)c3[nH]2)n1C -27.3%
COc1ccccc1NC(=O)c1sc2nc3c(cc2c1N)CCCCCC3 -23.1%
O=C(c1ccccc1)N1c2ncnn2C2(CCCCC2)[C@@H]2CCCC[C@@H]21 -30.1%
Cc1ccc2c(c1)C(c1ccc(F)cc1)N(C(=O)c1ccc(OC(C)C)cc1)CC(=O)N2 (stereo unspecified) -20.1%
Cc1ccccc1C(=O)Nc1cc(-c2ccc(Cl)cc2)nn1-c1ccccc1 18.5%
Cc1nn(-c2ccc(N3CCOCC3)nn2)c(C)c1CCC(=O)NCc1ccc(F)cc1 2.83%
COc1cc2[nH]c(=O)n(CCCC(=O)N3CCN(c4cccc(C(F)(F)F)c4)CC3)c(=O)c2cc1OC -3.16%
COc1ccccc1N1CCN(C(=O)CN2C(=O)COc3ccc(S(=O)(=O)N4CCC(C)CC4)cc32)CC1 -18.7%
Cc1ccc(NC(=O)C2CCN(c3cc(C)nc4c(-c5ccc(Cl)cc5)c(C)nn34)CC2)c(C)c1 5.41%
COc1ccc(C(=O)CSc2c(C(C)C)cnc3c2c(=O)n(C)c(=O)n3C)cc1 -21.7%
CCOc1ccc(NC(=O)CSc2nc3c(oc4ccccc43)c(=O)n2CCOC)cc1 -15.5%
Cc1ccn2c(=O)cc(COc3ccc(NC(=O)c4ccccc4F)cc3)nc2c1 -4.32%
Cn1ncc2nc(SCC(=O)Nc3ccc(Br)cc3F)n(Cc3ccccc3)c(=O)c21 -29.5%
Cc1ccc(NC(=O)C(Cc2c[nH]c3ccccc23)NC(=O)OCC(C)C)cc1 (stereo unspecified) 0.362%
COc1ccc(/C=C\C(=O)NC2CC(=O)N(c3ccccc3)C2)cc1OC (stereo unspecified) -5.4%
COc1cc(NC(=O)c2nc(-c3ccncc3)no2)cc(OC)c1OC -9.47%
Cc1ccc(CN(C(=O)COc2c(C)cccc2C)C2CCS(=O)(=O)C2)o1 (stereo unspecified) -9.03%
COC(=O)c1nc2n(n1)C(c1cc(OC)ccc1OC)C(C(=O)Nc1ccc(C)cc1C)=C(C)N2 (stereo unspecified) -17.7%

From PubChem BioAssay AID1508624 (National Center for Advancing Translational Sciences (NCATS), 2021)
